According to the supplement of paper PMC3334620:
Over roughly 33,000 sequences, “E-score (-0.5 to 0.5)” has its median near -0.012; the highest 2% begin near 0.27. This is one part of the list.

target: T1, Vhr1 (UniProt P40522); assay: PBM E-score (8-mer binding enrichment) (E-score (-0.5 to 0.5)); higher = stronger / more preferred TF binding; most listed sequences are background and not binding sites; details: protein concentration: 200 nM; construct: GST-full length
T1 sequence: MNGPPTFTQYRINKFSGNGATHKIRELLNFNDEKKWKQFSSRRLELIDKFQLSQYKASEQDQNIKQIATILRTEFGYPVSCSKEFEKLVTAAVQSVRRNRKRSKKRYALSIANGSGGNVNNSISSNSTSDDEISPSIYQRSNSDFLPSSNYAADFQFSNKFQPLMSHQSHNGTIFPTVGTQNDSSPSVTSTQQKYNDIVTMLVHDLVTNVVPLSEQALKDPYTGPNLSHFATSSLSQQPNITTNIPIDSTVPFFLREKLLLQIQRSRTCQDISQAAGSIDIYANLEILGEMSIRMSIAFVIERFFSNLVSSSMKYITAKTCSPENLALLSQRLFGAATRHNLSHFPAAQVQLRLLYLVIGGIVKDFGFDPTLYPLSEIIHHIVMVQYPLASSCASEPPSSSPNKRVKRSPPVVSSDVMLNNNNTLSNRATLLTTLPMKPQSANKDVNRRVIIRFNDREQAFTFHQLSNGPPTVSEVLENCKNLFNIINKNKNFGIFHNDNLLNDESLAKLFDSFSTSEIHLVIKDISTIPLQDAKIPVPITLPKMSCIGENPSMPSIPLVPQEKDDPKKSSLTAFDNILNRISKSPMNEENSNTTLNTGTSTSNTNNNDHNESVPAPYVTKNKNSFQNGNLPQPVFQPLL
Protocol: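 Universal 'all 10-mer' protein binding microarrays (Agilent AMADID 015681) probed with GST-tagged S. cerevisiae TFs (full-length or DBD) made by in vitro transcription/translation (PURExpress), about 100-200 nM. Bound TF was detected with fluorescent anti-GST. Each ungapped 8-mer (which stands for itself and its reverse complement) is scored by the PBM enrichment score (E-score), a modified Wilcoxon-Mann-Whitney statistic from -0.5 to +0.5, computed with the Universal PBM Analysis Suite. Scale: above 0.35 generally sequence-specific binding.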

Sequence	PBM E-score
AATGTAAG	0.0748
ACGCAGGA	-0.00404
AAGAGGGG	-0.00511
CCGCGTCG	0.202
GCTTTAAA	-0.187
GGGCGTCA	-0.103
GCCGCCAA	0.0203
GATTTCAC	0.205
CGCAAATA	-0.0728
CCCTCACC	0.146
GAACATGC	-0.146
CAATCGCC	-0.00346
AGCGATCG	-0.0914
ATCAGCAC	-0.0238
AATTCAAT	-0.169
AGTCGAAC	0.129
ACGAAATC	0.0327
CTGAAGAC	-0.125
CCGAGTAA	0.0614
GGTCACAC	0.0719
ACGACTTA	-0.0824
GACTGCAC	0.0745
CCAGACAA	-0.103
TACTACGA	0.175
TAACCCGA	-0.127

Sequence	PBM E-score
TCCTCTAA	-0.187
TAGGGTGA	0.151
CTACCCTA	-0.0737
ACAAATAC	0.176
ATCGGGAC	-0.128
CGTCTCCA	0.149
AAGGGATC	-0.0523
CGGAGATA	0.01
AGTCCAGA	0.0276
AGGAGCTA	-0.252
ATCCCGTA	0.0388
CAGCACCG	0.109
CATGTGTA	0.198
AGGCCAAG	-0.147
AGGAGCAC	0.0155
AACAGGGA	-0.041
CGAATGCA	-0.132
CAGAGTGC	0.0334
AGCCTCTA	-0.251
CCCACCCC	0.389
ACATCTTG	0.0412
AGATATTC	-0.119
AATAAACG	-0.197
GGCTCGTA	0.237
GTTTACAA	-0.0707

Sequence	PBM E-score
CTCATTAC	-0.00531
TCCGCCAA	-0.0919
GGCATGCA	-0.0207
ACGGCCTC	-0.0149
ACTTGCTG	0.0601
AACCCTAC	-0.122
ATGGACCC	-0.0068
ATTATACG	0.303
AAGGGCAT	-0.197
AGTCCGAT	-0.026
AATCACAA	0.187
GTCTCAAC	0.104
ACTGGTCA	0.0911
GATTATAA	0.0655
AGCGGTAC	-0.0927
AAAGGATA	-0.0494
ATTGAGAG	0.0673
GCAGAGAA	-0.168
GCCGGTCC	-0.0382
CGGCTCAC	0.168
CCGGGGAA	-0.184
CGCGAGCC	0.252
AATGGAAA	-0.116
CAGTAGGG	-0.0814
ATAGTCGG	0.0546

Sequence	PBM E-score
GGCGCGGA	0.0292
ACGTCCCC	-0.0926
AGTGTGAC	0.209
ATCCTAGA	-0.158
AGGGTACG	-0.117
ACAGTAGA	0.0362
CAGTACAG	0.0272
AATCCCCT	-0.0554
AATTAGTC	0.29
GCCCAACA	-0.126
CAGGCTTC	-0.0775
CAGTGCGA	0.0486
CCGAAGCC	-0.108
AGCTGATG	0.129
CCGGACTC	0.303
CATTCGGG	0.0198
AGCAAGTG	-0.0415
ACTAGCTC	0.0864
GCGCGTCA	0.0521
CCGTCTCA	0.0978
AATTTATA	-0.00261
CATGAAGG	0.11
ATTGGAGG	-0.123
CCGTCGCA	0.0831
CAATACGG	-0.0474

Sequence	PBM E-score
AAGGCCTT	-0.364
ATGCGACC	0.142
CGACTACC	0.22
GCATCCAA	-0.223
CTTGTTAC	-0.151
ATGGTTAA	0.198
CATCTTAG	-0.0177
GTTTACCA	0.0758
ATCGATAG	0.0675
ACTCCTGC	0.192
AAGCAGAG	-0.194
ATCTCGGG	0.178
GCAGACCA	-0.0259
ACGCGACA	0.0104
GCACTTTA	-0.249
ACGCGACT	0.235
GCGTGGTA	0.0698
ACGAGGAA	0.142
ATCACCTC	0.0402
GTAGGGGA	-0.0734
ATGCCAAT	0.0469
AGCGTCCC	-0.282
GAATAAAC	-0.00787
CAAGATCC	0.0159
CACCCAAG	0.014

Sequence	PBM E-score
GAGAACTA	-0.0914
TCATAGCA	0.158
CCGACGAG	0.0204
CGGGGCAG	-0.0605
CTTGAATC	0.13
CTGGAGGA	-0.0803
AACCTAGG	-0.0726
GCCGGGAA	-0.111
AAACGACG	0.128
CAGCATCC	-0.136
GATCCTGA	0.0271
CCGAGGGC	0.0794
TACCCCCA	-0.00494
CGTGCTGA	0.0493
AGCCTTAC	-0.235
ACCGGTCC	-0.199
AGCAGACC	-0.0502
AAGTCGTG	0.106
GACTAACA	0.354
CCTCTGTA	-0.16
GAGGTAGC	-0.157
ACAAAACG	0.142
AATAGTGT	0.146
CGGTCACA	0.0193
CCTATGCC	-0.0314

Sequence	PBM E-score
CACGGCCA	0.106
TGCGGTAA	-0.0231
GGAGGGGA	0.219
GCCAACAA	-0.0809
CCAGCAAG	-0.0664
AATCGATC	0.143
GCAAGTAC	-0.109
GAAAGGGC	-0.182
AAGACAAG	-0.0934
CTTGTCAC	0.00301
CGTGGGTA	0.069
CTGAGTCC	0.292
AGATGTGG	-0.0571
AGCATGAC	0.219
CCTAAACA	-0.0387
ATATCCAA	0.105
CCGAGCGC	0.126
AATTGTTC	0.0494
TAGTCTAA	-0.0119
TTCTCCAA	-0.202
GCAAGGCC	-0.139
CGCTAACG	-0.0402
